Here are results for 57 molecules from PubChem BioAssay AID463173 (ICCB-Longwood Screening Facility, Harvard Medical School, 2010).

In all, about 52,000 compounds went through this assay and about 4,300 (8.3%) were called active. Rule as the data show it: active = survival mostly below about 52% (no sharp cut-off); inactive = mostly above about 56%. This is one part of the list.

This assay deals with DeltatarO mutant. Kind of assay: growth inhibition of S. aureus wild type versus tarO mutant, primary screen, teichoic acid synthesis inhibitors, RN4220, OD600 (AID 463173). Particulars: OD600, 18 h, active compounds read low, screened at 18.75 µg/mL (by protocol).
In the case of `COc1ccc(C(=O)Nc2ccc(N3CCN(c4ccccc4)CC3)c(C(=O)O)c2)cc1`, the survival is inactive: 94%. Turning to `COc1ccc(-c2nc3sc(CCNC(=O)Cc4ccc(Cl)cc4)c(C)n3n2)cc1`, the survival was inactive: 62%. The figure for `CCOc1ccc(CCNC(=O)CSc2nc3ccccc3nc2Cc2ccc(C)cc2)cc1OCC` is inactive: 112%; for `CC(C)CCOc1ccc(Cn2c(=O)sc3ccccc32)cc1` it is active: 0%; for `CCCc1oc2ccc(NS(=O)(=O)c3ccc(OCC)cc3)cc2c1C(=O)OCC` it is inactive: 65%. Turning to `CNc1nc(SCc2ccccc2)nc(N2CCOCC2)n1`, the survival was inactive: 69%. For the molecule `COC(=O)CC(=O)CSc1nc2cc(C(=O)NC(C)C)ccc2c(=O)n1CCc1ccccc1`, the survival was inactive: 94%. Take `O=C(Cc1ccc(-c2ccccc2)cc1)NCCS(=O)(=O)N1CCN(c2cccc(Cl)c2)CC1`: the survival was inactive: 74%. For the molecule `COc1ccc(Nc2ncnc3c2cnn3-c2cc(Cl)ccc2C)cc1OC`, the survival is inactive: 92%. Regarding `Cc1cccc(-c2nc(SCCCOc3cc(C)c(Cl)c(C)c3)n3[nH]c(=O)cc3n2)c1`, the survival was inactive: 69%.

For `CCOc1ccc(OCCOCCn2c(-c3ccc(Cl)cc3)nc3ccccc3c2=O)cc1`, the survival was active: 26%. As to `CSc1ncc(C(=O)NCc2ccc(F)cc2)c(-c2ccccc2)n1`, the survival was inactive: 95%. The same measure for `CCCCN(CC)CCCNC(=O)Cn1nc(CC)n2c(cc3sccc32)c1=O`: inactive: 93%; for `CCOC(=O)c1ccc(NC(=O)CCCn2nc(C)c3sc4ccccc4c3c2=O)cc1`: inactive: 86%; for `COc1ccc2c(c1)c1c(c(=O)n(CCc3ccccc3)c(=O)n1Cc1cccc(C)c1)n2C`: inactive: 70%.

As to `CCN1/C(=C\C(=O)C2CC2)Sc2ccccc21`, the survival was inactive: 81%.

Take `CCOc1ccc(C2C(=O)N(C3CCCCC3)CC(=O)N2Cc2ccccc2OC)cc1OC` (configuration not stated): the survival was inactive: 84%. As to `CCc1ccc(-c2nc3c(c(SCc4ccccc4)n2)Cc2c(CO)cnc(C)c2O3)cc1`, the survival is inactive: 66%. With `Cc1ccc(-c2onc(C)c2C)cc1S(=O)(=O)N1CCC(C)CC1`, the survival is inactive: 71%. `Cc1ccc(Cn2c(C(=O)Nc3ccc(Cl)cc3)cc3sccc32)cc1`: the survival was inactive: 112%. Consider `COc1ccccc1N(CC(=O)NC1CCCCC1)C(=O)c1csnn1`, for which the survival is inactive: 96%. The same measure for `COc1cc(Cl)c(C)cc1NC(=O)CNC(=O)Cn1ccc2ccccc2c1=O`: inactive: 52%.

Take `O=C(CN1C(=O)COc2ccc(S(=O)(=O)N3CCOCC3)cc21)NCc1ccc(Cl)cc1`: the survival is inactive: 55%. The same measure for `CCN(C(=O)CSc1nnc(-c2cc3occc3n2C)n1-c1ccccc1C)c1ccccc1`: inactive: 120%. For the molecule `Cc1nc2cc(-c3ccc(Cl)cc3)nn2c(C)c1CCC(=O)N1CCN(c2ccccc2)CC1`, the survival is inactive: 124%. The figure for `CS(=O)(=O)c1ncc(Cl)c(C(=O)N2CCN(c3cccc(Cl)c3)CC2)n1` is active: 17%.

For `Cc1oc2ncn(CC(C)C)c(=O)c2c1C(=O)NCc1cccc(Cl)c1`, the survival was inactive: 94%. Take `CCOc1ccc(Nc2sc(C(=O)c3ccc(F)cc3)c(N)c2S(=O)(=O)c2ccc(C)cc2)cc1`: the survival was active: 52%.

On to `O=C(Nc1ccc(Cl)cc1)c1ccc2oc(=O)n(Cc3ccccc3)c2c1`, for which the survival was inactive: 67%.

As to `COc1ccc(C(=O)CN2CCN(S(=O)(=O)c3ccc(F)cc3)CC2)cc1`, the survival is inactive: 83%. For the molecule `COCCCNc1nc2c(c(=O)n(Cc3ccccc3)c(=O)n2C)n1C`, the survival was inactive: 64%. The figure for `COc1ccc(C2c3c(n(C)c4ccccc34)C(=O)N2CC(=O)Nc2c(C)cc(C)cc2C)cc1` (configuration not stated) is inactive: 84%; for `CC(C)Cn1cc(NC(=O)NCc2ccc(Cl)cc2)c2ccccc2c1=O` it is inactive: 86%. The same measure for `CCC(=O)N1c2ccccc2CC1C(=O)NCCCN1CCN(c2cccc(Cl)c2)CC1` (configuration not stated): inactive: 95%; for `Cc1ccc(C)c(NC(=O)CSc2nc(=O)n(CCN3CCOCC3)c3c2CCC3)c1`: inactive: 84%. `COc1cc2c(cc1OC)C(COc1ccc3c(C)cc(=O)oc3c1)N(C(=O)c1ccc(C)cc1)CC2` (configuration not stated): the survival was inactive: 67%. The figure for `Cc1c(C(=O)NCc2ccccc2Cl)sc2nc3n(c(=O)c12)CCCC3` is inactive: 51%; for `CCOc1ccccc1CNC(=O)C(CC)n1nc(C)c2c(C)n(-c3ccccc3)nc2c1=O` (configuration not stated) it is inactive: 98%. The same measure for `COc1ccc(Br)c2c1-c1nc(NC(=O)c3ccc(F)cc3)sc1C2`: inactive: 67%. The figure for `CCOC(=O)N1CCC(NC(=O)c2ccc3c(c2)N(Cc2ccccc2)C(=O)c2ccccc2S3(=O)=O)CC1` is inactive: 52%. As for `CCOc1ccc(Nc2nc(N)c(C(=O)c3ccccc3Cl)s2)cc1`, the survival is active: 0%. The figure for `CCN(CC)S(=O)(=O)c1ccc(NC(=O)c2nn(C)c3c2CSc2ccccc2-3)cc1` is inactive: 75%; for `O=c1cc(O)n(-c2ccccc2)c(=S)[nH]1` it is inactive: 94%. The figure for `Fc1ccc(Nc2nc(SCc3cccc(F)c3)nc3ccccc23)cc1` is inactive: 75%. The same measure for `Cc1cccc(CC(=O)NC2CC(=O)N(c3ccc4c(c3)OCCO4)C2)c1` (configuration not stated): inactive: 72%; for `Cc1ccccc1CSc1ncc(Cl)c(C(=O)NCc2ccccc2)n1`: inactive: 83%. With `CCOC(=O)c1ccc(N2C(=O)c3[nH]nc(-c4ccc(C)cc4)c3C2c2ccc(O)cc2)cc1` (configuration not stated), the survival is inactive: 87%. The figure for `CCC(=O)N1CCc2cc(Br)cc(S(=O)(=O)CCC(=O)Nc3ccc(CC)cc3)c21` is inactive: 88%; for `CC(=O)N1CCC2(CC1)OC(=O)C(C)=C2C(=O)NCc1ccccc1Cl` it is inactive: 89%.

As to `COc1ccc(-c2cn3c(n2)sc2cc(C(=O)Nc4ccc(F)cc4)ccc23)cc1`, the survival was inactive: 75%.

`Cc1cc(NC(=O)c2ccc(F)cc2)ccc1-c1cc2ccccc2oc1=O`: the survival is inactive: 75%. The same measure for `Cc1ccc(Cl)cc1NC(=O)c1csnn1`: inactive: 78%; for `CC(=O)OC1=C(C(C)=O)N(Cc2ccccc2)S(=O)(=O)c2ccccc21`: inactive: 63%. For the molecule `CC1CCN(C(=O)CCS(=O)(=O)c2cc3c(cc2Cl)NC(=O)CO3)CC1`, the survival was inactive: 105%. For the molecule `CCOC(=O)c1nnn(CC(=O)NC(=O)Nc2ccccc2F)c1C(=O)OCC`, the survival is inactive: 78%. The same measure for `CCCCSc1nnc2[nH]c(=O)cc(C)n12`: inactive: 99%; for `O=C(c1cc(-c2ccc(Br)cc2)n[nH]1)N1CCN(S(=O)(=O)c2ccc(Br)s2)CC1`: inactive: 93%.
